From the supplement of paper PMC11417369
This is one part of the list.

test system: PfSIP2 AP2 domain 1 (GST-tagged); experiment: gcPBM binding intensity (ln(normalized median fluorescence intensity)); higher = stronger DNA binding
In short: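 The binding buffer was 1× PBS containing 1% milk, 0.2 mg/ml BSA, 0.5% salmon testes DNA and 0.03% Triton X-100. In it, GST-tagged P. falciparum DNA-binding domains expressed in E. coli were applied for 1 h to an Agilent 4 × 180k array of primer-extended double-stranded 36-bp intergenic genomic probes plus negative controls. Binding intensity, read with Alexa488 anti-GST antibody and a 488 nm scan, is the highest Masliner-normalised natural-log median intensity across replicate spots of either probe orientation.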

Row | Sequence | gcPBM binding intensity (ln)
1 | TTCACTAATAAATACGCACACATATACATATATATA [CACACA_site1383] | 7.48
2 | TTTCAAATATATATAGCACACAAGGTATAATATAAA [CACACA_site877] | 6.78
3 | TAATTTTTTTTAAACACACACATTACATTCAAAAAT [CACACA_site127] | 7.17
4 | CTAATATAGGTATGCACACACAATATGTACATATTT [CACACA_site7558] | 8.5
5 | TTTTAATTAGTACAAACACACATATACACCCAAAAA [CACACA_site5422] | 7.36
6 | TAATTGTAGACATGCACACACAAATATTATATATGT [CACACA_site845] | 7.45
7 | AAGGTATAGAAACACACACACGTGAATATAGTTTAA [CACACA_site5109] | 6.85
8 | TTCTTAAATATATTCAACATACATAATATATAATCT [CACACA_negctrl_site1806] | 7.04
9 | AATATTTTTCAATTTCATGTGCATTCATTGAAGTTA [CACACA_negctrl_site1232] | 7.34
10 | TATATATGTATATATTGTACTTTAAGACAAATATAT [XGTACX_site1052] | 6.88
11 | CGTTATATAATAAAGGTGCATAGATATATCATTATA [GTGCAC_site9774] | 10.5
12 | TATATAACATATATATGTACACATAATATCAGATTT [XGTACX_site1041] | 7.05
13 | ACAAAAATATTTGTAAAAAGAAATATAAATAAATAA [TGCATGCA_negctrl_site357] | 6.78
14 | AAAAATAGAGCAGCTCTCATATTTTTATGTGCAATA [CACACA_negctrl_site837] | 7.03
15 | AGGATATATTATATGTACACACACATATAAGGGATT [GTGCAC_negctrl_site47] | 7.03
16 | GCATTTATGAAAAATGTACACACATCAAATGCTTAT [CACACA_site9347] | 6.9
17 | TATTACACACAATATTGTACACATAGGAAAAATATT [XGTACX_site1726] | 7.19
18 | TATTTTTTACATTCGTGTACGCATTTTTGTGAATTT [XGTACX_site5339] | 6.89
19 | TCTAATACACAATGTTGTACATATTAATATATATGT [XGTACX_site2931] | 7.17

Row | Sequence | gcPBM binding intensity (ln)
20 | ATCATTCTTAAACCGTGTACTTATTATTTTTTTTTT [XGTACX_site2798] | 7.09
21 | AAATGACTATATAAAAGTACTAGAAAGTATAAATAT [XGTACX_site944] | 6.98
22 | CATCCGTTGATATATGCATGCATATTGTTATTACCA [TGCATGCA_site868] | 7.23
23 | AAAATACACGATAGTTGTACATTAAATGTATACAAT [XGTACX_site360] | 6.91
24 | GCATATATGGATATATAGGTATATATAAATGCAATA [GTGCAC_negctrl_site24] | 6.97
25 | CCTCTCATTTTATATAGTACATATTTCAAAAAAAAA [XGTACX_site488] | 7.47
26 | AGGAGGATAGTTCACAGTACCCAGTAACTCTACGGA [XGTACX_site1997] | 6.56
27 | ATATAAAAAAAAAATTGTACAAAAATATATACATAT [XGTACX_site469] | 7.03
28 | GCATATTTTCCCTGTGAATAAAGTTTTTTTTTTTAT [XGTACX_negctrl_site87] | 6.76
29 | TATAAAGATATAAATGCACACGTATTAAAAAAAAAA [CACACA_site8223] | 7.39
30 | TGTTACATAAAATGCACACTTTCAAATATGCTAATA [CACACA_site2925] | 7.74
31 | GAGATAAAATAAAACACACACATATATATATAGAAT [CACACA_site2197] | 7
32 | AAAAAAATCTCCAGTGTGCACAATCACATAATATAT [GTGCAC_site9833] | 9.07
33 | TATAAGCTAAGTTGTTGTACAAAAAGGAAAAGTATA [XGTACX_site3741] | 7.09
34 | AATATATGGTTTCATGATATTAAATTCAATTTAATG [GTGCAC_negctrl_site370] | 6.85
35 | TATACGTATTTTATATGTACACATATACATATTTAT [XGTACX_site5301] | 6.98
36 | TTTTCTTTTAAGTTTGTTTTACACTTTTTATTTTGA [CACACA_negctrl_site1581] | 6.62
37 | AAATATAAATATACTCGTACATATATATATATATAT [XGTACX_site6940] | 9.48
38 | ACTATATTTCATAACAGTACATATTCCTGAAACATC [XGTACX_site4924] | 7.27

Row | Sequence | gcPBM binding intensity (ln)
39 | ACAATATAAAAAAATTGTACATAATATATAATATTA [XGTACX_site1040] | 6.95
40 | CATGCTTATATGTGCACACACAAAAGAAAAGAAAAA [CACACA_site1655] | 9.95
41 | TTCCTTTGTTGTCGTTGTACTTATATGGTTATAATT [XGTACX_site3082] | 7.5
42 | TATACATAAAAAAATTTTACCAGGTTAATACAAATA [CACACA_negctrl_site1171] | 6.95
43 | TACCTTATGTTATATACACACATATAACATAATATA [CACACA_site6741] | 7.12
44 | ATATATATATATAGTAGTACTCTCTCTGTATATATA [XGTACX_site3754] | 9.27
45 | ATTTAGAAAAATAAAACACACATATATCTGTAAATA [CACACA_site6119] | 6.93
46 | ATATGTAAAATATGGTGTACAATCAAATAAAAAAAA [XGTACX_site6270] | 7.16
47 | ATTAATATATTTACCACACACCCATTTCGATTTTAT [CACACA_site3605] | 6.99
48 | CATATAAAAGGACACACACACACATATATATATATA [CACACA_site4674] | 9.23
49 | TATTTTATTTTTTGTTGTACATATATATTATATATA [XGTACX_site4513] | 7.28
50 | GATATATTACTTAAAATACACACCATGGAAAAGTTT [CACACA_site2606] | 7
51 | GAATATGTTAACATTTGTACATAAAATTTTTTACAA [XGTACX_site2444] | 7.13
52 | ATGTTTAAATTTTTCAGTACATATATTCTAGTAAAA [XGTACX_site1010] | 7.15
53 | AATATATATATATATCCACACACATACATATATTAA [CACACA_site7907] | 7.41
54 | ATGGTTTTTATTTTATGTACTTACTAAAATGAATAA [XGTACX_site4317] | 7.43
55 | TACATAAAAATATATGCATGTTCTTATTTAATAAAA [TGCATGCA_site743] | 6.75
56 | ATAAAATAAATATAACCACACACGAAAGAGAGAGAA [CACACA_site9075] | 7.24
